Results on 30 molecules are retold here after US11685745B2, “Substituted benzoxazole and benzofuran compounds as PDE7 inhibitors” (Dart NeuroScience, LLC, priority 2017, dated 2023).

Structures are written as SMILES.

The target of the assay is N-terminal truncated recombinant human PDE7B enzyme (Homo sapiens (Human), UniProt Q9NP56). Nature of the assay: biochemical.
On to `O=C1Nc2c(Cl)cc3cc(C(=O)NCC4COc5ccccc5O4)oc3c2C2(CCCCC2)N1` (stereo not drawn) [Example 452, 5′-Chloro-N-(2,3-dihydro-1,4-benzodioxin-2-ylmethyl)-7′-oxo-7′,8′-dihydro-6′H-spiro[cyclohexane-1,9′-furo[2,3-f]quinazoline]-2′-carboxamide], for which the IC50 is 10 to 100 nM.
Regarding `O=C1Nc2c(Cl)cc3cc(C(=O)N4CCC(N5CCOCC5)CC4)oc3c2C2(CCCCC2)N1` [Example 453, 5′-Chloro-2′-[4-(morpholin-4-yl)piperidine-1-carbonyl]-7′,8′-dihydro-6′H-spiro[cyclohexane-1,9′-furo[2,3-f]quinazoline]-7′-one], the IC50 was 10 to 100 nM.
For `COc1cccc(N2CCN(C(=O)c3cc4cc(Cl)c5c(c4o3)C3(CCCCC3)NC(=O)N5)CC2)c1` [Example 454, 5′-Chloro-2′-[4-(3-methoxyphenyl)piperazine-1-carbonyl]-7′,8′-dihydro-6′H-spiro[cyclohexane-1,9′-furo[2,3-f]quinazoline]-7′-one] the value was 100 to 1000 nM; for `CC(C)N1CCC(NC(=O)c2cc3cc(Cl)c4c(c3o2)C2(CCCCC2)NC(=O)N4)CC1` [Example 455, 5′-Chloro-7′-oxo-N-[1-(propan-2-yl)piperidin-4-yl]-7′,8′-dihydro-6′H-spiro[cyclohexane-1,9′-furo[2,3-f]quinazoline]-2′-carboxamide], 100 to 1000 nM; for `O=C1Nc2c(Cl)cc3cc(C(=O)NC(CO)Cc4ccccc4)oc3c2C2(CCCCC2)N1` (stereo not drawn) [Example 456, 5′-Chloro-N-(1-hydroxy-3-phenylpropan-2-yl)-7′-oxo-7′,8′-dihydro-6′H-spiro[cyclohexane-1,9′-furo[2,3-f]quinazoline]-2′-carboxamide], 10 to 100 nM.
To `CN(Cc1ccc2c(c1)OCO2)C(=O)c1cc2cc(Cl)c3c(c2o1)C1(CCCCC1)NC(=O)N3` [Example 457, N-(2H-1,3-Benzodioxol-5-ylmethyl)-5′-chloro-N-methyl-7′-oxo-7′,8′-dihydro-6′H-spiro[cyclohexane-1,9′-furo[2,3-f]quinazoline]-2′-carboxamide] belongs 10 to 100 nM; to `COC(=O)CCC1CCCCN1C(=O)c1cc2cc(Cl)c3c(c2o1)C1(CCCCC1)NC(=O)N3` (stereo not drawn) [Example 458, Methyl 3-[1-({5′-chloro-7′-oxo-7′,8′-dihydro-6′H-spiro[cyclohexane-1,9′-furo[2,3-f]quinazoline]-2′-yl}carbonyl)piperidin-2-yl]propanoate], 10 to 100 nM; to `O=C1Nc2c(Cl)cc3cc(C(=O)N4CCN(C5CCCC5)CC4)oc3c2C2(CCCCC2)N1` [Example 459, 5′-Chloro-2′-(4-cyclopentylpiperazine-1-carbonyl)-7′,8′-dihydro-6′H-spiro[cyclohexane-1,9′-furo[2,3-f]quinazoline]-7′-one], 100 to 1000 nM.
`CC(C)C(=O)N1CCN(C(=O)c2cc3cc(Cl)c4c(c3o2)C2(CCCCC2)NC(=O)N4)CC1` [Example 460, 5′-Chloro-2′-[4-(2-methylpropanoyl)piperazine-1-carbonyl]-7′,8′-dihydro-6′H-spiro[cyclohexane-1,9′-furo[2,3-f]quinazoline]-7′-one]: the IC50 was in the range of 10 to 100 nM.
For `O=C1Nc2c(Cl)cc3cc(C(=O)N(CCCO)Cc4ccccc4)oc3c2C2(CCCCC2)N1` [Example 461, N-Benzyl-5′-chloro-N-(3-hydroxypropyl)-7′-oxo-7′,8′-dihydro-6′H-spiro[cyclohexane-1,9′-furo[2,3-f]quinazoline]-2′-carboxamide], the IC50 is 10 to 100 nM.
`COCCN(Cc1cccs1)C(=O)c1cc2cc(Cl)c3c(c2o1)C1(CCCCC1)NC(=O)N3` [Example 462, 5′-Chloro-N-(2-methoxyethyl)-7′-oxo-N-(thiophen-2-ylmethyl)-7′,8′-dihydro-6′H-spiro[cyclohexane-1,9′-furo[2,3-f]quinazoline]-2′-carboxamide]: the IC50 was 10 to 100 nM.
As to `CN(C)CCNC(=O)c1cc2cc(Cl)c3c(c2o1)C1(CCCCC1)NC(=O)N3` [Example 463, 5′-Chloro-N-[2-(dimethylamino)ethyl]-7′-oxo-7′,8′-dihydro-6′H-spiro[cyclohexane-1,9′-furo[2,3-f]quinazoline]-2′-carboxamide], the IC50 was in the range of 100 to 1000 nM.
On to `O=C1Nc2c(Cl)cc3cc(C(=O)N4Cc5cccnc5C4)oc3c2C2(CCCCC2)N1` [Example 464, 5′-Chloro-2′-{5H,6H,7H-pyrrolo[3,4-b]pyridine-6-carbonyl}-7′,8′-dihydro-6′H-spiro[cyclohexane-1,9′-furo[2,3-f]quinazoline]-7′-one], for which the IC50 lay in the range of 100 to 1000 nM.
For the molecule `O=C1Nc2c(Cl)cc3cc(C(=O)N(CCO)C4CCCCC4)oc3c2C2(CCCCC2)N1` [Example 465, 5′-Chloro-N-cyclohexyl-N-(2-hydroxyethyl)-7′-oxo-7′,8′-dihydro-6′H-spiro[cyclohexane-1,9′-furo[2,3-f]quinazoline]-2′-carboxamide], the IC50 lay in the range of 10 to 100 nM.
As for `Cc1nc(CCNC(=O)c2cc3cc(Cl)c4c(c3o2)C2(CCCCC2)NC(=O)N4)sc1C` [Example 466, 5′-Chloro-N-[2-(dimethyl-1,3-thiazol-2-yl)ethyl]-7′-oxo-7′,8′-dihydro-6′H-spiro[cyclohexane-1,9′-furo[2,3-f]quinazoline]-2′-carboxamide], the IC50 lay within 10 to 100 nM.
As for `O=C1Nc2c(Cl)cc3cc(CN4CCCCC4CCO)oc3c2C2(CCCCC2)N1` (stereo not drawn) [Example 468, 5′-Chloro-2′-{[2-(2-hydroxyethyl)piperidin-1-yl]methyl}-7′,8′-dihydro-6′H-spiro[cyclohexane-1,9′-furo[2,3-f]quinazoline]-7′-one], the IC50 lay within 100 to 1000 nM.
As for `O=C1CN(Cc2cc3cc(Cl)c4c(c3o2)C2(CCCCC2)NC(=O)N4)CCN1` [Example 469, 5′-Chloro-2′-[(3-oxopiperazin-1-yl)methyl]-7′,8′-dihydro-6′H-spiro[cyclohexane-1,9′-furo[2,3-f]quinazoline]-7′-one], the IC50 fell in the range of 100 to 1000 nM.
Consider `Cn1ccc(CNCc2cc3cc(Cl)c4c(c3o2)C2(CCCCC2)NC(=O)N4)n1` [Example 470, 5′-Chloro-2′-({[(1-methyl-1H-pyrazol-3-yl)methyl]amino}methyl)-7′,8′-dihydro-6′H-spiro[cyclohexane-1,9′-furo[2,3-f]quinazoline]-7′-one], for which the IC50 fell in the range of 10 to 100 nM.
With `COCCN(Cc1cc2cc(Cl)c3c(c2o1)C1(CCCCC1)NC(=O)N3)C(C)C` [Example 471, 5′-Chloro-2′-{[(2-methoxyethyl)(propan-2-yl)amino]methyl}-7′,8′-dihydro-6′H-spiro[cyclohexane-1,9′-furo[2,3-f]quinazoline]-7′-one], the IC50 lay in the range of 100 to 1000 nM.
With `N#CC1CCN(Cc2cc3cc(Cl)c4c(c3o2)C2(CCCCC2)NC(=O)N4)CC1` [Example 472, 1-{5′-Chloro-7′-oxo-7′,8′-dihydro-6′H-spiro[cyclohexane-1,9′-furo[2,3-f]quinazoline]-2′-ylmethyl}piperidine-4-carbonitrile], the IC50 was 100 to 1000 nM.
As to `CC(C)N(CCO)Cc1cc2cc(Cl)c3c(c2o1)C1(CCCCC1)NC(=O)N3` [Example 473, 5′-Chloro-2′-{[(2-hydroxyethyl)(propan-2-yl)amino]methyl}-7′,8′-dihydro-6′H-spiro[cyclohexane-1,9′-furo[2,3-f]quinazoline]-7′-one], the IC50 lay in the range of 100 to 1000 nM.
Consider `O=C1Nc2c(Cl)cc3cc(CN4CCN(c5ccncc5)CC4)oc3c2C2(CCCCC2)N1` [Example 474, 5′-Chloro-2′-{[4-(pyridin-4-yl)piperazin-1-yl]methyl}-7′,8′-dihydro-6′H-spiro[cyclohexane-1,9′-furo[2,3-f]quinazoline]-7′-one], for which the IC50 was in the range of 100 to 1000 nM.
Turning to `O=C1Nc2c(Cl)cc3cc(CNCCn4cccn4)oc3c2C2(CCCCC2)N1` [Example 475, 5′-Chloro-2′-({[2-(1H-pyrazol-1-yl)ethyl]amino}methyl)-7′,8′-dihydro-6′H-spiro[cyclohexane-1,9′-furo[2,3-f]quinazoline]-7′-one], the IC50 lay within 10 to 100 nM.
As for `O=C1Nc2c(Cl)cc3cc(CNC4CCOCC4)oc3c2C2(CCCCC2)N1` [Example 476, 5′-Chloro-2′-{[(oxan-4-yl)amino]methyl}-7′,8′-dihydro-6′H-spiro[cyclohexane-1,9′-furo[2,3-f]quinazoline]-7′-one], the IC50 fell in the range of 100 to 1000 nM.
To `O=C1Nc2c(Cl)cc3cc(CN4CCN5CCC[C@H]5C4)oc3c2C2(CCCCC2)N1` [Example 477, 2′-[(8aS)-Octahydropyrrolo[1,2-a]piperazin-2-ylmethyl]-5′-chloro-7′,8′-dihydro-6′H-spiro[cyclohexane-1,9′-furo[2,3-f]quinazoline]-7′-one] belongs 100 to 1000 nM.
On to `O=C1Nc2c(Cl)cc3cc(CNCC4CCCO4)oc3c2C2(CCCCC2)N1` (stereo not drawn) [Example 478, 5′-Chloro-2′-{[(oxolan-2-ylmethyl)amino]methyl}-7′,8′-dihydro-6′H-spiro[cyclohexane-1,9′-furo[2,3-f]quinazoline]-7′-one], for which the IC50 lay within 100 to 1000 nM.
For `CCN(CCC#N)Cc1cc2cc(Cl)c3c(c2o1)C1(CCCCC1)NC(=O)N3` [Example 479, 3-({5′-Chloro-7′-oxo-7′,8′-dihydro-6′H-spiro[cyclohexane-1,9′-furo[2,3-f]quinazoline]-2′-ylmethyl}(ethyl)amino)propanenitrile], the IC50 was 100 to 1000 nM.
For `O=C1Nc2c(Cl)cc3cc(CNCc4ccccn4)oc3c2C2(CCCCC2)N1` [Example 480, 5′-Chloro-2′-{[(pyridin-2-ylmethyl)amino]methyl}-7′,8′-dihydro-6′H-spiro[cyclohexane-1,9′-furo[2,3-f]quinazoline]-7′-one] the value was 10 to 100 nM.
On to `O=C1Nc2c(Cl)cc3cc(CN4CCCC4CO)oc3c2C2(CCCCC2)N1` (stereo not drawn) [Example 481, 5′-Chloro-2′-{[2-(hydroxymethyl)pyrrolidin-1-yl]methyl}-7′,8′-dihydro-6′H-spiro[cyclohexane-1,9′-furo[2,3-f]quinazoline]-7′-one], for which the IC50 lay in the range of 100 to 1000 nM.
In the case of `O=C1Nc2c(Cl)cc3cc(CN(CCO)Cc4ccccc4)oc3c2C2(CCCCC2)N1` [Example 483, 2′-{[Benzyl(2-hydroxyethyl)amino]methyl}-5′-chloro-7′,8′-dihydro-6′H-spiro[cyclohexane-1,9′-furo[2,3-f]quinazoline]-7′-one], the IC50 fell in the range of 100 to 1000 nM.

For orientation: IC50 means the concentration that inhibits the measured activity by half.
